Results taken from paper PMC4336329 (PLoS ONE, 2015).
In all, about 310,000 compounds went through this assay and about 14,000 (4.5%) showed an effect of 50% or more. Effects have a minus sign here. This is one part of the list.

Target: human ether-à-go-go-related gene (hERG) potassium channel (human, UniProt Q12809)
Experiment: primary screen, population patch clamp on CHO cells stably expressing hERG
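Further: peak tail current of the secondary pulse compared with the same well before compound.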

human ether-à-go-go-related gene (hERG) potassium channel, sequence (Q12809 whole entry, looked up): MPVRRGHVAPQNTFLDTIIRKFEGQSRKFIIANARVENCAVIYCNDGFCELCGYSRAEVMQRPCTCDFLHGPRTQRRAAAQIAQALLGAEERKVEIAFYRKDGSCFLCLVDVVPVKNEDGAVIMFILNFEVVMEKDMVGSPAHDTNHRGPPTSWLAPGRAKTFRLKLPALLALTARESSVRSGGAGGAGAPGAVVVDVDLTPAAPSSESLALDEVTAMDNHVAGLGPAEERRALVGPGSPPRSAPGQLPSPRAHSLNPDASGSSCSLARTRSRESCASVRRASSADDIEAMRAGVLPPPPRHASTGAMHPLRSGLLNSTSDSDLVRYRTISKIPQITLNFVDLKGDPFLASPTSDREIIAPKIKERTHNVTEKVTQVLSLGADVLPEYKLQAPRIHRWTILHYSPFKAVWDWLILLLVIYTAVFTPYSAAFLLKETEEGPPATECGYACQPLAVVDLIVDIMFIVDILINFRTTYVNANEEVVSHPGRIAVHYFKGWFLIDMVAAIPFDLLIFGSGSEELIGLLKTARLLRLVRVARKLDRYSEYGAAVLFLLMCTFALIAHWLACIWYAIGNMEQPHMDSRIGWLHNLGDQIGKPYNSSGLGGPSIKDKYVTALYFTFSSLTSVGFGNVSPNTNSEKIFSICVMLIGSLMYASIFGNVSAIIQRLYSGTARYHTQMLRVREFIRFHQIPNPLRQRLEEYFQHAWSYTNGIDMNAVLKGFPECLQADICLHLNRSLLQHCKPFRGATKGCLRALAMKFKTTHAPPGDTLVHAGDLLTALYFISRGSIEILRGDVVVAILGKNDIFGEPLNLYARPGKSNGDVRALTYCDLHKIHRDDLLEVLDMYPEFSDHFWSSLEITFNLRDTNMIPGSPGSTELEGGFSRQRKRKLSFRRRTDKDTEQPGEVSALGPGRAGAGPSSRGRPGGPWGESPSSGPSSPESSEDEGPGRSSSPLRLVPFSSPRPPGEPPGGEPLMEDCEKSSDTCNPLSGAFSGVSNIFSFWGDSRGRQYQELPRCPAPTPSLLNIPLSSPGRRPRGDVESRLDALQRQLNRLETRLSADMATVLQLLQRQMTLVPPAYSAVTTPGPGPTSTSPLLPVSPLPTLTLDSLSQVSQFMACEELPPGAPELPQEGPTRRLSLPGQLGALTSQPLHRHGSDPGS

Point of comparison: O=C(Nc1cc(N2CCCCC2)ncn1)c1ccc(F)cc1, “hERG current change (%, negative = inhibition) at 10uM” value -5.58%. Against it:
- CCOc1ccc(Cn2c3ccc(OC)cc3c3nc4ccccc4nc32)cc1 — higher, 15.4%
- Cc1ccc(C)c(NCc2n[nH]c(=S)n2-c2ccccc2)c1 — higher, 15%
- CN(C)c1ccc(/C=C2/C(=N\O)C3CCN2CC3)cc1.Cl — higher, 4.49%
- CCOC(=O)CC1COCCN1C(=O)c1cc(COc2ccc(F)cc2Cl)on1 (stereo not shown) — lower, -23.2%
- O=C(N/N=C/c1ccc(Br)o1)c1cncc(Br)c1 — higher, 0.479%
- Cn1ncc([N+](=O)[O-])c1C(=O)Nc1ccccc1C(=O)O — higher, 17.1%
- NNC(=O)CNC(=O)c1ccc(F)cc1 — higher, 21.7%
- CCC1=Nc2cc(C(=O)O)ccc2Sc2ccccc21 — higher, 21.2%
- O=C(/C=C\c1ccco1)Nc1nc(-c2ccc3ccccc3c2)cs1 — higher, 14.2%
- CCCCCNC(=O)Cc1cc(=O)[nH]c(=O)[nH]1 — higher, 24.8%
- O=c1[nH]c(=O)n(-c2ccc(Cl)cc2)c(O)c1C=NCCN1CCCCC1 — higher, 2.13%
- CC(C)CNS(=O)(=O)c1ccc(CCC(=O)N2CCN(c3ccc(F)cc3)CC2)cc1 — lower, -50.3%
- O=C(O)CN1C(=O)C(=O)N(Cc2ccc(Cl)cc2Cl)C1=O — higher, 19.9%
- Cc1ccc(C)c(OCCC(=O)OCC(=O)NCCc2ccc(S(N)(=O)=O)cc2)c1 — lower, -46.5%
- Cc1ccc(S(=O)(=O)N[C@H](C(=O)OCC(=O)N2N=C(c3ccc(Cl)cc3)CC2c2ccco2)C(C)C)cc1 (stereo partly shown) — higher, -5.55%
- Cc1ccc(Cl)c(NC(=S)N(CCCN2CCOCC2)Cc2ccco2)c1 — lower, -35.3%
- CCCc1cc(=O)[nH]c(SCC(=O)N2CCN(c3ccc(F)cc3)CC2)n1 — lower, -15.2%
- CC(C)=N/N=C1/NC(=O)C(CC(=O)Nc2cc(Cl)ccc2C)S1 (stereo not shown) — higher, -1.67%
- CC1(C)CC(=NO)CC(C)(C)N1 — higher, 6.44%
- CCn1c(=O)c2cc(C(=O)NCc3cccs3)sc2c2ccccc21 — higher, 9.62%
- CCOC(=O)C1Sc2[nH]c(=O)sc2C(c2ccc(Cl)cc2)C1C(=O)OCC (stereo not shown) — higher, -1.1%
- O=C1C2C3C=CC([C@@H]2C(=O)N1C1CC1)[C@H]1C(=O)N(C2CC2)C(=O)C31 (stereo partly shown) — higher, 10.8%
- N#Cc1ccccc1OCC(=O)OCC(=O)c1c[nH]c2ccccc12 — lower, -18.4%
- Cc1cc(C)cc(-n2ccnc2SCC(=O)c2c(N)n(C3CC3)c(=O)[nH]c2=O)c1 — higher, 0.393%
- COc1ccc(C23CC4CC(CC(C4)C2)C3)cc1C(=O)NCCN(C)C.Cl — lower, -35.6%
- O=C(NCc1ccccc1Cl)c1ccccc1CCc1ccccc1 — higher, 18.5%
- O=C(O)CCC(=O)N1N=C(c2ccccc2)CC1c1cccs1 (stereo not shown) — higher, -0.51%
- COc1ccc(NC(=S)N2CCN(C(c3ccccc3)c3ccccc3)CC2)c(OC)c1 — higher, 8.77%
- Cc1ccccc1-n1c(SCC(=O)NC(N)=O)nc2sc(-c3ccccc3)cc2c1=O — higher, 12.1%
- COc1ccc(OCCSc2ncn[nH]2)cc1 — lower, -14%
- COc1ccc(C)cc1NC(=O)C(Sc1nnnn1C)c1ccccc1 (stereo not shown) — lower, -27.6%
- COc1cc(/C=C2/C(=N)N3C(=NC2=O)SN=C3S(C)(=O)=O)ccc1OS(=O)(=O)c1ccc(C)cc1 — higher, 19%
- CC[C@@]12C(=O)N(c3cccc(Br)c3)C(=O)N1[C@H](c1cccc(C)c1)[C@@H]1C(=O)N(Cc3ccccc3)C(=O)[C@@H]12 — higher, 10.9%
- O=c1oc(C2(O)CCCCC2)cc2ccc(/C=C/c3ccc(F)cc3)cc12 — higher, 19.5%
- CCOc1cc(/C=C2/SC(=S)N(CC3CCCO3)C2=O)ccc1O (stereo not shown) — higher, 17.4%
- COc1ccc(C2/C=C\CN(C(=O)Nc3ccccc3-c3ccccc3)CC(=O)N2Cc2ccc(F)cc2)cc1 (stereo not shown) — higher, 18%
- CN1C(=O)C2C(c3ccc(N(C)C)cc3)NN(Cc3ccccc3)C2C1=O (stereo not shown) — higher, -0.68%
- O=C(CSc1ccc2nnc(CCNC(=O)c3ccccc3)n2n1)NCc1ccco1 — higher, 12.3%
- CN(C)c1ccc(Nc2nc(N)c([N+](=O)[O-])c(N3CCOCC3)n2)cc1 — lower, -6.07%
- CC1CC(C)CN(C(=O)CN2C(=O)NC3(CCCCCCC3)C2=O)C1 (stereo not shown) — higher, -4.41%
- CCN(c1ccc(NS(=O)(=O)c2cc(Cl)ccc2Cl)cc1)C(C)C — higher, -0.282%
- O=c1c2ccccc2nc(CN2CCCCCC2)n1-c1ccc(F)cc1 — lower, -14.9%
- CCOCCCn1c(SCC(=O)Nc2cccc(OC)c2)nc2ccccc2c1=O — lower, -58.4%
- O=C(Nc1cccc(S(=O)(=O)Nc2ccc(Cl)cc2)c1)c1ccccn1.O=C(O)C(=O)O — lower, -10.8%
- COc1ccc(/C=C2\SC(=O)N(CCNC(=O)C3=COCCO3)C2=O)cc1 — higher, 2.9%
- CC(=O)Nc1c(C(=O)Nc2ccc3c(c2)OCO3)oc2ccccc12 — higher, 16.5%
- Cn1c(=O)[nH]c(=O)c2c1nc(N1CCCC1)n2CC(O)COc1ccccc1 (stereo not shown) — lower, -10.5%
- CCOc1ccccc1C1CC(=O)NC2=C1C(=O)CC(C)(C)C2 (stereo not shown) — higher, -3.21%
- CCN1C(=O)N[C@@H](c2cccc(C(F)(F)F)c2)[C@H](C(C)=O)[C@H]1C — higher, -3.36%
- NS(=O)(=O)c1ccc(CCNC(=O)c2ccc(S(=O)(=O)N3CCCCC3)cc2)cc1 — higher, 7.95%
- O=C(NCc1ccccn1)c1cc(-c2ccccc2)on1 — higher, 1.85%
- CN(CC(=O)Nc1c(Cl)cccc1Cl)C(=O)C1=COCCO1 — higher, 17.9%
- COc1ccc(-c2cc3ccc(OCc4nn[nH]n4)cc3oc2=O)cc1OC — lower, -11.3%
- COCCN(C(=O)COC(=O)c1ccc(Cl)s1)c1c(N)n(Cc2ccccc2)c(=O)[nH]c1=O — higher, 14.2%
- O=C(NC1=NCCS1)c1cc(-c2cccc(Br)c2)nc2ccccc12 — higher, -0.647%
- Cc1ccc2nc(-c3cc(-c4ccccc4)no3)cn2c1 — higher, 16.6%
- O=C(CNC1C(=O)Nc2ccccc21)Sc1ccccc1 (stereo not shown) — higher, 22.3%
- O=C(O)Cn1nnnc1SCC(=O)Nc1ccc(OC(F)(F)F)cc1 — higher, -3.09%
- CC[C@H](C)[C@@H](C(=O)N1CCNCC1)n1cc([C@@H](N)CC(C)C)nn1.Cl — higher, 11.9%
- CCCCCCSc1ccc([C@@H]2[C@H]3C(=O)N(CC)C(=O)[C@H]3[C@]3(C(=O)OC)CCCN23)cc1.O=C(O)C(F)(F)F — lower, -7.59%
- CC(=O)N1CCc2ccc(S(=O)(=O)N3CC(C)OC(C)C3)cc21 (stereo not shown) — higher, 36.1%
- CCn1c(C)nc2cc(C(=O)N/N=C(\C)c3ccc(N4CCOCC4)cc3)ccc21 — higher, 7.29%
- CC(=O)CCN1C(=O)NC2(CCCc3ccccc32)C1=O (stereo not shown) — higher, 21.9%
- CC(=O)c1ccc(S(=O)(=O)Nc2ccc(C(=O)NCC(c3cccs3)N3CCOCC3)cc2)cc1 (stereo not shown) — higher, 2.34%
- CN(CCc1ccccc1)C(=O)CCc1nnc(Cc2ccc3c(c2)OCO3)o1 — lower, -9.1%
- COc1cc(CNC(C)c2ccccc2)cc(Cl)c1OCC(=O)Nc1ccccc1.Cl (stereo not shown) — higher, 9.86%
- CCC(NC(=O)/C(=C\c1ccc2c(c1)OCO2)NC(C)=O)C(=O)O (stereo not shown) — higher, -1.66%
- CC(=O)N=C1SC2CS(=O)(=O)CC2N1c1c(Cl)cccc1Cl (stereo not shown) — lower, -6.76%
- O=C(O)C(=O)O.c1ccc(-c2ccc(OCCCNC3CCCC3)cc2)cc1 — lower, -86.1%
- Cc1ccccc1NC(=O)C1CC(=O)n2ncnc2N1 (stereo not shown) — higher, 18.1%
- COC(=O)c1ccc(C(=O)OC)c(NC(=O)CSc2cccc[n+]2[O-])c1 — lower, -5.89%
- NC(=O)C1CCN(c2oc(-c3ccc(F)cc3)nc2S(=O)(=O)c2ccccc2)CC1 — lower, -17.4%
- O=C(CSCc1cnn(-c2ccccc2)c1-n1cccc1)N1CCN(Cc2ccccc2)CC1 — lower, -36%
- O=c1[nH]c(=S)[nH]c2nc(-c3ccccc3)cnc12 — higher, 25.4%
- CCCC1Cc2c(sc3ncnc(N)c23)CO1 (stereo not shown) — higher, -4.42%
- COc1ccc(-c2nnc(SCC(=O)NCc3cccs3)n2C(C)C)cc1 — lower, -35.8%
- O=C(COc1ccccc1Br)c1ccc(O)cc1O — lower, -8.36%
- O=[N+]([O-])c1cccnc1S(=O)(=O)c1ccccc1 — higher, 15.9%
- COc1cccc(NC(=O)N2CCCC2C(=O)NC2CC2)c1 (stereo not shown) — higher, 3.61%
- Cn1c(-c2cc3ccccc3oc2=O)nc2ccccc21 — higher, 5%
- COc1cc(OC)c(C(=O)NNC(=O)CN(C)S(=O)(=O)c2ccc(Cl)cc2)cc1OC — lower, -19.2%
- COc1ccc(-n2ccnc2SCC(=O)Nc2ccccc2)cc1 — lower, -28%
- O=C(CSc1cn(Cc2ccccc2)c2ccccc12)Nc1nccs1 — higher, 8.44%
- c1ccc(Oc2ccc(-n3cnnn3)cc2)cc1 — lower, -7.4%
